{
  "source": "a collection of fitness landscapes (doi:10.1126/science.1257360)",
  "parents": {"B1": {"name": "PhoQ; a variant is named by its letters at X, in order, P23837 (parent)", "chain": "MKKLLRLFFPLSLRVRFLLATAAVVLVLSLAYGMVALIGYSVSFDKTTFRLLRGESNLFYTLAKWENNKLHVELPENIDKQSPTMTLIYDENGQLLWAQRDVPWLMKMIQPDWLKSNGFHEIEADVNDTSLLLSGDHSIQQQLQEVREDDDDAEMTHSVAVNVYPATSRMPKLTIVVVDTIPVELKSSYMVWSWFIYVLSANLLLVIPLLWVAAWWSLRPIEALAKEVRELEEHNRELLNPATTRELTSLVRNLNRLLKSERERYDKYRTTLTDLTHSLKTPLXXLQXXLRSLRSEKMSVSDAEPVMLEQISRISQQIGYYLHRASMRGGTLLSRELHPVAPLLDNLTSALNKVYQRKGVNISLDISPEISFVGEQNDFVEVMGNVLDNACKYCLEFVEISARQTDEHLYIVVEDDGPGIPLSKREVIFDRGQRVDTLRPGQGVGLAVAREITEQYEGKIVAGESMLGGARMEVIFGRQHSAPKDE"}},
  "note": "The other results are listed elsewhere or left out.",
  "data": [
    {"variants_of": "B1", "assay": "enrichment ratio after two sorts for PhoP signalling (ratio (wild type AVST 3.29)); higher = more functional", "conditions": "with PhoP (E. coli)", "values": [
      {"variant": "IFKI", "enrichment ratio": 2.22},
      {"variant": "ATLQ", "enrichment ratio": 11.5},
      {"variant": "GHLL", "enrichment ratio": "≤ 0.25"},
      {"variant": "FGHY", "enrichment ratio": "≤ 0.25"},
      {"variant": "LYQS", "enrichment ratio": "≤ 0.25"},
      {"variant": "WMGP", "enrichment ratio": "≤ 0.25"},
      {"variant": "ARPW", "enrichment ratio": "≤ 0.25"},
      {"variant": "IMCK", "enrichment ratio": "≤ 0.25"},
      {"variant": "QVAQ", "enrichment ratio": "≤ 0.25"},
      {"variant": "ILCG", "enrichment ratio": "≤ 0.25"},
      {"variant": "ASSM", "enrichment ratio": 19.3},
      {"variant": "KPIC", "enrichment ratio": "≤ 0.25"},
      {"variant": "FNEA", "enrichment ratio": "≤ 0.25"},
      {"variant": "PKEY", "enrichment ratio": "≤ 0.25"},
      {"variant": "HNRH", "enrichment ratio": "≤ 0.25"},
      {"variant": "WASH", "enrichment ratio": "≤ 0.25"},
      {"variant": "GQDA", "enrichment ratio": "≤ 0.25"},
      {"variant": "PMWV", "enrichment ratio": "≤ 0.25"},
      {"variant": "FSAW", "enrichment ratio": "≤ 0.25"},
      {"variant": "RSQP", "enrichment ratio": "≤ 0.25"},
      {"variant": "AIVG", "enrichment ratio": 7.78},
      {"variant": "AMQV", "enrichment ratio": "≤ 0.25"},
      {"variant": "KHFT", "enrichment ratio": "≤ 0.25"},
      {"variant": "HWKQ", "enrichment ratio": "≤ 0.25"},
      {"variant": "LQEI", "enrichment ratio": "≤ 0.25"},
      {"variant": "KYGD", "enrichment ratio": "≤ 0.25"},
      {"variant": "TWAF", "enrichment ratio": "≤ 0.25"},
      {"variant": "LRHN", "enrichment ratio": "≤ 0.25"},
      {"variant": "VFHS", "enrichment ratio": "≤ 0.25"},
      {"variant": "YYIV", "enrichment ratio": "≤ 0.25"},
      {"variant": "MCRI", "enrichment ratio": "≤ 0.25"},
      {"variant": "HFGP", "enrichment ratio": "≤ 0.25"},
      {"variant": "ADMC", "enrichment ratio": 2.74},
      {"variant": "KGDQ", "enrichment ratio": 7.26},
      {"variant": "ITCM", "enrichment ratio": 1},
      {"variant": "PYWL", "enrichment ratio": "≤ 0.25"},
      {"variant": "FDST", "enrichment ratio": "≤ 0.25"},
      {"variant": "QDTV", "enrichment ratio": "≤ 0.25"},
      {"variant": "FFFK", "enrichment ratio": "≤ 0.25"},
      {"variant": "IVVT", "enrichment ratio": "≤ 0.25"},
      {"variant": "REDC", "enrichment ratio": "≤ 0.25"},
      {"variant": "VTWY", "enrichment ratio": "≤ 0.25"},
      {"variant": "PINR", "enrichment ratio": "≤ 0.25"},
      {"variant": "GVFY", "enrichment ratio": "≤ 0.25"},
      {"variant": "ANNK", "enrichment ratio": 0.253},
      {"variant": "SVCH", "enrichment ratio": 12.5},
      {"variant": "WKCH", "enrichment ratio": "≤ 0.25"},
      {"variant": "VACK", "enrichment ratio": "≤ 0.25"},
      {"variant": "TCAG", "enrichment ratio": 12.5},
      {"variant": "EQLP", "enrichment ratio": "≤ 0.25"},
      {"variant": "LAED", "enrichment ratio": "≤ 0.25"},
      {"variant": "NPPN", "enrichment ratio": "≤ 0.25"},
      {"variant": "IFQN", "enrichment ratio": "≤ 0.25"},
      {"variant": "GSWE", "enrichment ratio": "≤ 0.25"},
      {"variant": "VTWQ", "enrichment ratio": "≤ 0.25"},
      {"variant": "SMHS", "enrichment ratio": "≤ 0.25"},
      {"variant": "KPCW", "enrichment ratio": "≤ 0.25"},
      {"variant": "NQLN", "enrichment ratio": "≤ 0.25"},
      {"variant": "MSHN", "enrichment ratio": "≤ 0.25"},
      {"variant": "SFAS", "enrichment ratio": "≤ 0.25"},
      {"variant": "ICLA", "enrichment ratio": "≤ 0.25"},
      {"variant": "NLNC", "enrichment ratio": "≤ 0.25"},
      {"variant": "LLNP", "enrichment ratio": "≤ 0.25"},
      {"variant": "QSRD", "enrichment ratio": "≤ 0.25"},
      {"variant": "DFPM", "enrichment ratio": "≤ 0.25"},
      {"variant": "ITNY", "enrichment ratio": "≤ 0.25"},
      {"variant": "LTNQ", "enrichment ratio": "≤ 0.25"},
      {"variant": "AWAS", "enrichment ratio": "≤ 0.25"},
      {"variant": "IPAP", "enrichment ratio": "≤ 0.25"},
      {"variant": "TPCS", "enrichment ratio": "≤ 0.25"},
      {"variant": "PERP", "enrichment ratio": "≤ 0.25"},
      {"variant": "SIMN", "enrichment ratio": 11},
      {"variant": "LSIR", "enrichment ratio": "≤ 0.25"},
      {"variant": "YYQH", "enrichment ratio": "≤ 0.25"},
      {"variant": "CAII", "enrichment ratio": "≤ 0.25"},
      {"variant": "GNVC", "enrichment ratio": 11.6},
      {"variant": "HPDD", "enrichment ratio": "≤ 0.25"},
      {"variant": "WQIH", "enrichment ratio": "≤ 0.25"},
      {"variant": "FLVI", "enrichment ratio": "≤ 0.25"},
      {"variant": "NHHE", "enrichment ratio": "≤ 0.25"},
      {"variant": "TKLN", "enrichment ratio": 8.35},
      {"variant": "RKKT", "enrichment ratio": "≤ 0.25"},
      {"variant": "EYTI", "enrichment ratio": "≤ 0.25"},
      {"variant": "VKYT", "enrichment ratio": "≤ 0.25"},
      {"variant": "WMST", "enrichment ratio": "≤ 0.25"},
      {"variant": "TFDC", "enrichment ratio": "≤ 0.25"},
      {"variant": "QVLR", "enrichment ratio": "≤ 0.25"},
      {"variant": "GGGG", "enrichment ratio": "≤ 0.25"},
      {"variant": "AFIF", "enrichment ratio": "≤ 0.25"},
      {"variant": "SEGS", "enrichment ratio": 4.52},
      {"variant": "DMAY", "enrichment ratio": "≤ 0.25"},
      {"variant": "TWPM", "enrichment ratio": "≤ 0.25"},
      {"variant": "IPHF", "enrichment ratio": "≤ 0.25"},
      {"variant": "MFTP", "enrichment ratio": "≤ 0.25"},
      {"variant": "ADGI", "enrichment ratio": "≤ 0.25"},
      {"variant": "PNWT", "enrichment ratio": "≤ 0.25"},
      {"variant": "INCR", "enrichment ratio": "≤ 0.25"},
      {"variant": "HMFN", "enrichment ratio": "≤ 0.25"},
      {"variant": "PHNP", "enrichment ratio": "≤ 0.25"},
      {"variant": "VSWH", "enrichment ratio": 4.36},
      {"variant": "SEPE", "enrichment ratio": "≤ 0.25"},
      {"variant": "PPSR", "enrichment ratio": "≤ 0.25"},
      {"variant": "FPLA", "enrichment ratio": "≤ 0.25"},
      {"variant": "LKWQ", "enrichment ratio": "≤ 0.25"},
      {"variant": "SRPY", "enrichment ratio": "≤ 0.25"},
      {"variant": "LEWR", "enrichment ratio": "≤ 0.25"},
      {"variant": "GLHM", "enrichment ratio": "≤ 0.25"},
      {"variant": "RWII", "enrichment ratio": "≤ 0.25"},
      {"variant": "QQHI", "enrichment ratio": "≤ 0.25"},
      {"variant": "LKHL", "enrichment ratio": "≤ 0.25"},
      {"variant": "FHMF", "enrichment ratio": "≤ 0.25"},
      {"variant": "AVPK", "enrichment ratio": "≤ 0.25"},
      {"variant": "DQTA", "enrichment ratio": "≤ 0.25"},
      {"variant": "SFET", "enrichment ratio": "≤ 0.25"},
      {"variant": "TWWY", "enrichment ratio": "≤ 0.25"},
      {"variant": "MMSH", "enrichment ratio": "≤ 0.25"},
      {"variant": "TFQT", "enrichment ratio": "≤ 0.25"},
      {"variant": "DKPQ", "enrichment ratio": "≤ 0.25"},
      {"variant": "QQYK", "enrichment ratio": "≤ 0.25"},
      {"variant": "IWYN", "enrichment ratio": "≤ 0.25"},
      {"variant": "FFGL", "enrichment ratio": "≤ 0.25"},
      {"variant": "NKEP", "enrichment ratio": "≤ 0.25"},
      {"variant": "LKSN", "enrichment ratio": "≤ 0.25"},
      {"variant": "WCMI", "enrichment ratio": "≤ 0.25"},
      {"variant": "GDDV", "enrichment ratio": "≤ 0.25"},
      {"variant": "MANI", "enrichment ratio": "≤ 0.25"},
      {"variant": "NCMV", "enrichment ratio": "≤ 0.25"},
      {"variant": "LAHC", "enrichment ratio": "≤ 0.25"},
      {"variant": "MPQG", "enrichment ratio": "≤ 0.25"},
      {"variant": "KFLY", "enrichment ratio": "≤ 0.25"},
      {"variant": "DFTL", "enrichment ratio": "≤ 0.25"},
      {"variant": "PILL", "enrichment ratio": "≤ 0.25"},
      {"variant": "MSEY", "enrichment ratio": "≤ 0.25"},
      {"variant": "WLYM", "enrichment ratio": "≤ 0.25"},
      {"variant": "RTWS", "enrichment ratio": "≤ 0.25"},
      {"variant": "LHGT", "enrichment ratio": 0.63},
      {"variant": "TMFC", "enrichment ratio": "≤ 0.25"},
      {"variant": "AGHI", "enrichment ratio": "≤ 0.25"},
      {"variant": "MMCS", "enrichment ratio": 1.11},
      {"variant": "RFLA", "enrichment ratio": "≤ 0.25"},
      {"variant": "DLME", "enrichment ratio": "≤ 0.25"},
      {"variant": "YCRR", "enrichment ratio": "≤ 0.25"},
      {"variant": "GQWN", "enrichment ratio": "≤ 0.25"},
      {"variant": "ILHI", "enrichment ratio": "≤ 0.25"},
      {"variant": "PTQH", "enrichment ratio": "≤ 0.25"},
      {"variant": "TNLI", "enrichment ratio": 6.12},
      {"variant": "EYTF", "enrichment ratio": "≤ 0.25"},
      {"variant": "KTVW", "enrichment ratio": "≤ 0.25"},
      {"variant": "QNHH", "enrichment ratio": "≤ 0.25"},
      {"variant": "YESH", "enrichment ratio": "≤ 0.25"},
      {"variant": "DACC", "enrichment ratio": "≤ 0.25"},
      {"variant": "VYSD", "enrichment ratio": "≤ 0.25"},
      {"variant": "GILF", "enrichment ratio": 9.67}
    ]}
  ]
}
